# From publication PMC4336329 (PLoS ONE, 2015)
# Out of some 310,000 compounds screened, about 2,200 (0.71%) showed an effect of 50% or more. The effect is printed as a negative number. This is one part of the list.
# Molecular target: human ether-à-go-go-related gene (hERG) potassium channel (human, UniProt Q12809)
# Assay: primary screen, population patch clamp on CHO cells stably expressing hERG
# human ether-à-go-go-related gene (hERG) potassium channel, sequence (Q12809 whole entry, looked up): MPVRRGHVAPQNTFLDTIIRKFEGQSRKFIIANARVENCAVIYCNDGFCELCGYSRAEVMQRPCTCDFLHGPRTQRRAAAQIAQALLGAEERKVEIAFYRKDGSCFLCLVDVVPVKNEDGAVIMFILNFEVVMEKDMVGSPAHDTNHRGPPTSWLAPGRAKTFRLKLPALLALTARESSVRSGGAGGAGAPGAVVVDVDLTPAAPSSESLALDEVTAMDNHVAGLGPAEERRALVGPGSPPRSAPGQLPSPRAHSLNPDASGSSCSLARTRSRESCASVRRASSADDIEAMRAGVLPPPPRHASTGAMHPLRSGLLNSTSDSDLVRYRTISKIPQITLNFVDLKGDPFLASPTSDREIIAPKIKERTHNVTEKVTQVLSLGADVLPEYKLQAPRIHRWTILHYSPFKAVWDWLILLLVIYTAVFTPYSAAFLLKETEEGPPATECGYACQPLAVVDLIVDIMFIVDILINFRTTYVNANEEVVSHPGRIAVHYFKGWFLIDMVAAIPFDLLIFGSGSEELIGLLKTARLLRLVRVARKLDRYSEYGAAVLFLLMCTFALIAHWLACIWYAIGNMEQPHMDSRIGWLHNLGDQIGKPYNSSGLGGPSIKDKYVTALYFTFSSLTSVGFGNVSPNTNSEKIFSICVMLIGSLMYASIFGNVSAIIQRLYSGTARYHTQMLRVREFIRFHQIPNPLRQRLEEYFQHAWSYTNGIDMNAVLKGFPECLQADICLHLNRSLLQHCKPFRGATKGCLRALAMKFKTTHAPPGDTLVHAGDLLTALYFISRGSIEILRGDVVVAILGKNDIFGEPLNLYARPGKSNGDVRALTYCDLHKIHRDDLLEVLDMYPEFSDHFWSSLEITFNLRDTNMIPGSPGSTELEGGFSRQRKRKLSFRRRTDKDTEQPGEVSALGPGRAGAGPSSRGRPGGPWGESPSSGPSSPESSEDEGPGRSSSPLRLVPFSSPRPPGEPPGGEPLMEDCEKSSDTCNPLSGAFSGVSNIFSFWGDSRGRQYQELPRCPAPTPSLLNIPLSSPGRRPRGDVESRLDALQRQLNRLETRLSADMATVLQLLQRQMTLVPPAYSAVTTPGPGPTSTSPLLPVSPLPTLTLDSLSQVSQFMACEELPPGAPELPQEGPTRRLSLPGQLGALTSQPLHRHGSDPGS
row,SMILES,"hERG current change (%, negative = inhibition) at 1uM [%]"
1,CC(=O)NC1C(=O)N(CCN2CCOCC2)c2ccc(Br)cc21.Cl (stereo not shown),4.3
2,COc1ccc(-c2cc(=O)c3ccccc3n2C)cc1,4.83
3,Cc1cccc(NC(=O)CC2c3ccccc3Oc3ccccc32)c1,10.1
4,Fc1ccc2c(c1)/C(=N/Nc1ccccn1)CCS2,11.2
5,CN(C)CCNC(=O)c1[nH]nc2c1CCc1ccccc1-2,5.79
6,CC(=O)OC1CSc2nc3ccccc3n2C1 (stereo not shown),-2.13
7,CCOc1cc2c(cc1OCC)C(c1ccc(OC)cc1)N(c1ccccc1)C(=O)C2 (stereo not shown),1.2
8,COc1ccc(-c2nc3cc(NC(=O)c4ccc5c(c4)OCO5)ccc3o2)cc1,1.37
9,Cc1cc(C)n(C(=O)c2ccc([N+](=O)[O-])cc2Cl)n1,14.9
10,Cc1ccc(OCCOCCNC(C)(C)C)c([N+](=O)[O-])c1.O=C(O)C(=O)O,3.73
11,CCNC(=O)CN(c1ccc(Br)c(C)c1)S(C)(=O)=O,6.53
12,COc1ccc(Nc2nc(N)nc(CSc3nc(C)cc(C)n3)n2)cc1,12.7
13,O=C(COC(=O)/C=C/c1cccc(Cl)c1)NCCc1ccccc1,18.4
14,Cc1cccc(NC(=O)c2ccc(S(=O)(=O)N(C)C)cc2)c1,3.38
15,O=C(COC(=O)c1ccc(Cl)nc1)NC1CCCCCC1,9.48
16,O=C(CSc1ncnc2[nH]ncc12)Nc1nc(-c2ccc(F)c(F)c2)cs1,36.9
17,Oc1cccc(C=Nc2cccc3ccccc23)c1O,17.5
18,C=C(C)C(=O)Nc1cccnc1Oc1ccc(F)cc1,8.31
19,CCN(CC)S(=O)(=O)c1ccc(C(=O)NCc2n[nH]c(=S)n2-c2ccccc2OC)cc1,16.1
20,Cc1ccc(NC(=O)CCC(=O)OCc2ccc(Br)cc2)cc1,11.5
21,Cc1cc(Cl)c2oc(C(=O)N3CCCCC3CCN3CCCC3=O)c(C)c2c1 (stereo not shown),7.63
22,CNC(=O)c1c[nH]c2ccc(S(=O)(=O)Nc3cccc(SC)c3)cc2c1=O,13.7

row,SMILES,"hERG current change (%, negative = inhibition) at 1uM [%]"
1,CC(C)c1ccc(S(=O)(=O)c2nnn3c2nc(N2CCCCC2)c2ccccc23)cc1,12.3
2,Nc1cnc(CNc2ccccc2Cl)cn1,14
3,CCOc1ccc(C(=O)NCc2ccccc2OC)cc1,7.6
4,COCCCNC(=O)Cn1nnc(-c2ccccc2NC(=O)c2ccccc2F)n1,-5.11
5,Cc1ccc(CN2CCNC(=O)C2CC(=O)N(C)C(C2CC2)C2CC2)o1 (stereo not shown),-3.85
6,CN1CCN(C(=O)c2ccccc2-c2nc(-c3ccc(Cl)cc3)no2)CC1,-44.5
7,Clc1ccc(C2=CSC3=NCCN23)c(Cl)c1.[Br-],-24.4
8,COc1ccc(CNC(=O)C2CCN(S(=O)(=O)c3ccc4c(c3)NC(=O)CO4)CC2)cc1,8.22
9,CCc1ccc(-c2nc(CS(=O)CC(=O)NCc3ccco3)c(C)o2)cc1 (stereo not shown),4.83
10,C=CCn1c(O)c(N=NC(=S)Nc2ccc(OC)cc2)c2ccccc21,4.69
11,O=C(OC(C(=O)O)C(OC(=O)c1ccccc1)C(=O)NCc1ccccc1)c1ccccc1 (stereo not shown),8.21
12,Cc1ccccc1NC(=S)N/N=C1\CC(C)(C)Oc2ccc(O)cc21,13.4
13,CC(=O)Nc1ccccc1NC(=O)c1ccc(C)cc1C,18.3
14,COc1ccc(C2=C(C)C(N3CCN(C(=O)c4ccco4)CC3)=NS2(=O)=O)cc1,3.01
15,CCCCNC(=O)CCc1c(C)nc2nc(-c3cc(OC)cc(OC)c3)nn2c1C,8.34
16,CC(C)NC(=O)COC(=O)c1cccc(NS(=O)(=O)/C=C/c2ccccc2)c1,1.59
17,O=c1[nH]c(-c2ccccc2F)nc2c1sc(=S)n2Cc1ccccc1,13.7
18,Cc1nn(-c2ccccc2)c(NC(=O)c2cccs2)c(-c2ccccc2Cl)c1=O,9.23
19,COc1ccc(C(C#N)N2CCC(c3ccccc3)=N2)cc1 (stereo not shown),17.5
20,Cc1nn(-c2ccccc2)c(C)c1C(=O)OCC(=O)Nc1ccccc1F,8.91
21,COc1ccc(CCN(C)c2ccc(S(=O)(=O)N3CCCC3)cn2)cc1OC,1.16
22,COC(=O)C1C2CCC(C2)C1C(=O)OCC(=O)c1ccccc1 (stereo not shown),5.5

row,SMILES,"hERG current change (%, negative = inhibition) at 1uM [%]"
1,Cc1ccc(N=C(NOCc2ccc(Cl)cc2Cl)c2nonc2N)c(C)c1,3.28
2,N/C(=N\OS(=O)(=O)c1cc(Cl)ccc1Cl)c1ccncc1,-3.14
3,C[C@H](NC(=O)N1C[C@H]2C[C@@H](C1)c1cccc(=O)n1C2)C(=O)Nc1ccc(F)c(F)c1,6.72
4,COc1cc(CO)c(OC)c([N+](=O)[O-])c1,16.7
5,COc1cccc(C2c3[nH]c4ccccc4c3C[C@H]3C(=O)N(CCCCCO)CC(=O)N23)c1 (stereo partly shown),-33
6,Cc1ccc2nc(/C(C#N)=C\c3cc(C)n(-c4cccc([N+](=O)[O-])c4)c3C)[nH]c2c1,7.16
7,CN(CC(=O)N1CCCCC1)S(=O)(=O)c1cccc2cccnc12,-1.06
8,CC(C)(C)c1ccc(NC(=O)c2c(F)cccc2Cl)cc1,0.498
9,CC1=C(C(N)=O)C(c2ccco2)C(C(N)=O)=C(C)N1,16.4
10,COc1ccc(C(=O)COC(=O)C(C)N2C(=O)C3C4CCC(C4)C3C2=O)cc1 (stereo not shown),6.25
11,COc1ccc([C@@H]2[C@@H]3C(=O)N(C(C)(C)C)C(=O)[C@@H]3[C@]3(C)C(=O)N(c4cccc(F)c4)C(=O)N23)cc1,10
12,COCCCNC(=O)c1ccc(N2CCCC2)c(NS(=O)(=O)c2ccc(C)cc2)c1,0.617
13,CCOc1ccccc1CN1CCCC(C(=O)c2cc(F)ccc2F)C1 (stereo not shown),-16.6
14,NS(=O)(=O)c1ccc(CNC(=O)/C=C/c2c(Cl)cccc2Cl)cc1,8.52
15,O=C(N/N=C/c1ccc(N2CCCCC2)o1)C(O)(c1ccccc1)c1ccccc1,12.3
16,Cc1ncc([N+](=O)[O-])n1CCOC(=O)C12CC3CC(CC(C3)C1)C2,11.6
17,OCC1CCCN(C(=S)Nc2ccc(OC(F)F)cc2)C1 (stereo not shown),6.07
18,COc1cc(NS(=O)(=O)c2ccc(NC(=O)c3cccnc3)cc2)ncn1,5.26
19,CCCCCCCC(=O)N/N=C/c1cccnc1,-1.71
20,CCc1ccccc1NC(=O)CSc1nnc([C@@H](N)Cc2ccccc2)o1.Cl,3.44
21,O=C(C[N+]1(CC#Cc2ccccc2)CCOCC1)c1ccc(Cl)cc1.[Br-],-1.59
22,COc1ccc(CN2CCN(c3ccccn3)CC2)c(OC)c1,-52

row,SMILES,"hERG current change (%, negative = inhibition) at 1uM [%]"
1,COc1cccc(N/C(SCc2ccccc2C)=C(/C#N)C(=O)NCc2cccs2)c1,7.18
2,FC(F)(F)c1cc(-c2cccs2)nc(NCc2ccco2)n1,11.6
3,COc1cccc(CN2CCNC(=O)C2CC(=O)NCCc2ccccn2)c1 (stereo not shown),17.1
4,CCc1nc2ccc(C(=O)NCCc3ccc(OC)c(OC)c3)cc2nc1CC,15.7
5,COCCn1c(SCC(=O)N2CC(=O)Nc3ccccc32)nnc1-c1ccoc1C,7.41
6,CCC(C)NC(=O)CN(c1cc(C)cc(C)c1)S(=O)(=O)c1c(C)[nH]c(=O)[nH]c1=O (stereo not shown),0.737
7,COc1ccc(CNC(=O)CNC(=O)c2c(C)nn(C)c2Cl)cc1,-2.97
8,COc1ccc(C(=O)C(C)Oc2cccc(NC(=O)c3cccc([N+](=O)[O-])c3)c2)cc1 (stereo not shown),7.23
9,CCOC(=O)Cn1c(O)c(N=NC(=O)OC)c2ccccc21,9.56
10,CCCCCn1c(=O)c(C(=O)NC(C)c2ccccc2)c(O)c2ccccc21 (stereo not shown),12.4
11,CCc1noc(C)c1C(=O)Nc1nc(-c2ccccc2)cs1,7.35
12,CC(=O)c1c(C)[nH]c(C(=O)CN2C(=O)NC(C)(C)C2=O)c1C,6.04
13,COc1ccc(S(=O)(=O)N2CCC(C(=O)NCCC(=O)NC3CC3)CC2)cc1,13
14,Cc1ccc2nc3n(c(=O)c2c1)CCC3,1.93
15,O=C(O)/C=C/c1ccc(O)cc1,0.181
16,CCOc1ccccc1OCCCC(=O)OCC(=O)Nc1cccc(Cl)c1,4.03
17,CCOC(=O)Nc1ccc2nc(Sc3ccc(Cl)cc3)sc2c1,15.2
18,CSc1ccc(CCNC(=O)c2ccc(CS(=O)Cc3ccccc3Cl)o2)cc1 (stereo not shown),10.3
19,COc1cc(C(=S)N2CCCCC2)ccc1OCC(=O)N1CCCC1,-12.2
20,O=C(NCC1CCN(Cc2ccccc2F)CC1)C1CCCN(c2ncnc3c2nc2n3CCCCC2)C1 (stereo not shown),19.5
21,O=C(NC(NC(=S)Nc1ccccc1O)C(Cl)(Cl)Cl)c1ccco1 (stereo not shown),3.64
22,Cn1c(=O)c2c(SCc3ccccn3)nc(CC(C)(C)C)nc2n(C)c1=O,9.45
